# Data as given in patent US12577273B2, “Small molecule modulators of gut bacterial bile acid metabolism” (priority 2019, dated 2026).
# Where “and” joins values, the source holds several entries; their conditions need not be identical. Equal entries are not always repeated.
# Legend:
# [1] = test system: B. theta; experiment: Inhibitor screen in bacteria, B. theta culture; assay type: cell-based, Bacteroides thetaiotaomicron VPI-5482; settings: FIG. 2c, 100 μM inhibitor, 100 μM bile acid pool, 21 h, replicates 1-3
# Experimental: (§1) Bacterial Culturing. All bacterial strains were cultured at 37° C. in Cullen-Haiser Gut (CHG) media (which consists of brain heart infusion media (Bacto™ BHI, BD) supplemented with 1% BBL vitamin K1-hemin solution (BD), 1% trace minerals solution (ATCC), 1% trace vitamins solution (ATCC), 5% fetal bovine serum (Hyclone), 1 g/L cellubiose, 1 g/L maltose, and 1 g/L fructose) or BHI^+ (Bacto™ BHI, BD, supplemented with 5 mg/L hemin, and 2.5 uL/L Vitamin K1). All strains were grown under anaerobic conditions in a anaerobic chamber (Coy Lab Products Airlock) with a gas mix of 5% hydrogen and 20% carbon dioxide nitrogen. Escherichia coli was grown aerobically at 37° C. in LB medium supplemented with ampicillin to select for the pET21b plasmid.
# (§2) Inhibitor Screen in Bacteria. Bacterial cultures were diluted to OD600 of 0.1 in 4 mL BHI^+, containing 100 μM taurine conjugated bile acid pool 100 μM inhibitors. […] After 21 h, serial dilutions were plated on BHI^+ agar to determine cell viability (CFU/mL). […] The cultures were spun down in a centrifuge at 2,500 g for 5 mins to obtain better separation. The organic layer was then removed and the aqueous layer was extracted again using 2 mL of ethyl acetate.
# [2] = test system: B. fragilis; experiment: Inhibitor screen in bacteria, B. fragilis culture; assay type: cell-based, Bacteroides fragilis ATCC 25285; settings: FIG. 2c, 100 μM inhibitor, 100 μM bile acid pool, 21 h, replicates 1-3
# Experimental: as §1, §2
# [3] = test system: C. perfingens; assay type: cell-based, Clostridium perfringens ATCC 13124; settings: FIG. 2c, C. perfingens culture; 100 μM inhibitor, 100 μM bile acid pool, 21 h; replicates 1-3
smiles,measurement,setting,value
C[C@H](CCC(=O)CF)[C@H]1CC[C@H]2[C@@H]3[C@H](O)C[C@@H]4C[C@H](O)CC[C@]4(C)[C@H]3CC[C@]12C [Compound 7],% deconjugation of TβMCA,[1],0.63% and 0.17% and 0.00%
same,% deconjugation of TCA,[2],1.14% and 1.51% and 1.11%
same,% deconjugation of TDCA,[2],9.74% and 8.92% and 5.67%
same,% deconjugation of TUDCA,[2],6.33% and 10.78% and 9.04%
same,% deconjugation of TβMCA,[2],4.96% and 4.15% and 2.69%
same,% deconjugation of TCA,[3],19.18% and 14.04% and 7.40%
same,% deconjugation of TDCA,[3],78.88% and 69.68% and 54.57%
same,% deconjugation of TUDCA,[3],9.84% and 18.06% and 15.54%
same,% deconjugation of TβMCA,[3],7.40% and 4.72% and 4.84%
